In PubChem BioAssay AID1963832 (Molecular Pharmacology Branch, DTP, NCI, 2024) one finds viability, T/C data, which are given here for one molecule.

Structures are written as SMILES. Some entries of the source have several records that differ or are many. The other results are left out here. An entry can have further records. Results that share an entry repeat one measurement across runs, samples, wells, individuals or studies. Dates in brackets are months of testing. Counts like (3×) count equal records among those shown.

The experiment concerns 885724-159-R-J1-PDC complex spheroid viability. As to the kind of experiment: Anticancer human tumor 885724-159-R-J1-PDC patient-derived pancreatic adenocarcinoma cell line growth inhibition [POLQ]. The note with it: compound alone 10 µM; stronger effect = lower value. As to the method:
Multicellular complex tumor spheroid response to Polymerase (POL) inhibitors (novobiocin, ART-558, RP6685) in combination with a variety of drugs and investigational agents in selected tumor cell lines
The POL inhibitors (novobiocin, ART-558, and RP6685) were evaluated both individually and in combination with standard of care and investigational anticancer small molecules within a complex spheroid model of solid tumors. . Complex spheroids include a stromal component modeled by human endothelial cells (HUVEC) and fibroblasts modeled by human mesenchymal stem cells (MSCs). The concentration ranges selected for each drug and investigational agent were based upon clinically achievable concentrations if the clinical Cmax of the agent was known.
Compounds. […] If the clinical Cmax for an agent had not been determined, the highest concentration tested was 10 microM, except for SN-38, which was tested at a high concentration of 1 microM. […]
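Further: spheroids exposed to compounds for 7 days.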

Consider `Cc1cccc(N(C)C(=O)C2C(O)CCN2c2nc(C)cc(C(F)(F)F)c2C#N)c1` (stereo unspecified), for which the viability, T/C was 107 (2×), 118, 101, 95.5, 89.5, 110, 111% [2023-11] and 96.9, 107, 108, 99.6, 112% [2023-12].
